# About 18,000 (5.8%) of roughly 310,000 compounds were called active. Inconclusive results, whose numbers are uncertain, are shown with a selection of clear calls. Calls come from the whole dose curve; as a rule, active = well fitted inhibition curve with a large enough effect; inconclusive = small, poorly fitted or top-dose-only effect, or another doubt; inactive = no such curve, though single readings can be large or run the other way. No potency is given beside an inconclusive call; the fits are too rough.
# Assay: Primary qHTS for delayed death inhibitors of the malarial parasite plastid, 48 hour incubation
# Settings: P. falciparum luciferase growth in erythrocytes; series mostly up to 28.7 µM; activity change, negative = inhibition: at the top concentration
# Summary of the method: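 In quantitative HTS format, infected erythrocytes bearing luciferase-reporter parasites were treated for a single generation at 37 C. Luminescence after adding detection reagent served as the growth measure.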
# % is set by controls: 0 for no effect and ±100 for the full control effect; potency is the fitted concentration of half-maximal effect; tags give direction and shape of the fitted curve.
Structure (SMILES),Potency,"activity change, negative = inhibition"
CCn1c(Cc2c(C)[nH]c3ccccc23)nnc1SCC(=O)NCc1ccccc1,"inconclusive [inhibitor, full curve]",
N#Cc1ccc(C(=O)OCC(=O)Nc2ccc(S(N)(=O)=O)cc2)cc1,,inactive: 1.85%
CC1(C)CC(=O)C(CC2=C(N)CC(C)(C)CC2=O)=C(N)C1,"inconclusive [inhibitor, full curve, poor fit]",
N#Cc1cc(-c2ccccc2)nc(N2CCNCC2)n1,"inconclusive [inhibitor, partial curve, poor fit]",
Cc1cccc(C(=O)Nc2ccccc2-c2nnn(CC(=O)Nc3ccc4c(c3)OCCO4)n2)c1,"inconclusive [inhibitor, single point]",
O=C1CC(c2ccc3c(c2)OCO3)c2cc3c(cc2N1)OCO3 (stereo not drawn),"inconclusive [inhibitor, single point]",
Oc1[nH]c(=S)sc1/C=C1\C(c2ccccc2)=Nc2ccccc21,,inactive: 15.1%
CC(C)(C)c1ccc(C(=O)C2CCCN(C(=O)CCn3cncn3)C2)cc1 (stereo not drawn),,inactive: -6.41%
COc1ccc(NS(=O)(=O)c2cccc(C(=O)NCCCN3CCCC3=O)c2)cc1,"inconclusive [inhibitor, single point]",
O=[N+]([O-])c1cccc(N/N=C/c2cccc(O)c2O)c1,"inconclusive [inhibitor, single point]",
CN(C)C(=O)c1nc2ccc(Cl)cn2c1CN1CCCC(OCc2ccccc2)C1 (stereo not drawn),"inconclusive [inhibitor, partial curve, poor fit]",
CCC1(c2ccccc2)NC(=O)N(CC(=O)NNC(=O)c2ccc(F)cc2)C1=O (stereo not drawn),,inactive: 13.8%
Cc1noc(C)c1C(=O)NC(C)c1ccc(Cl)cc1Cl (stereo not drawn),"inconclusive [inhibitor, partial curve, poor fit]",
COc1cc(CNCc2ccccn2)ccc1OCc1cccc(Cl)c1,"inconclusive [inhibitor, partial curve]",
Cc1c(C)n(CC(O)CN2C(=O)c3ccccc3S2(=O)=O)c2ccccc12 (stereo not drawn),,inactive: -2.07%
C=CCc1cccc(CNc2nc3ccccc3n2C(C)C)c1O,active: 4.65 µM,
Cc1ccc(N(C)C(=O)c2ccc3c(Cl)c4c(nc3c2)CCC4)cc1C,"inconclusive [inhibitor, single point]",
C[n+]1c2n(c3ccccc31)N=C(c1ccccc1)CS2,active: 2.08 µM,
COc1cc(NC(=O)CCn2c(=O)oc3ccccc32)cc(OC)c1OC,,inactive: 12.9%
COC(=O)C1=C(c2ccc(OC)c(OC)c2)C[C@@H]2CC[C@H]1N2C(=O)NCc1cc(C)oc1C(F)(F)F,active: 9.28 µM,
COc1ccc2[nH]c(C(=O)Nc3ncc(C)cc3Br)cc2c1,"inconclusive [inhibitor, full curve, poor fit]",
CC1CCN(CC(=O)c2ccccc2Cl)CC1,"inconclusive [inhibitor, single point]",
O=C(O)CCN1C(=O)/C(=C\c2ccncc2)SC1=S,"inconclusive [inhibitor, single point]",

Structure (SMILES),Potency,"activity change, negative = inhibition"
N=c1c(S(=O)(=O)c2ccccc2)cc2c(=O)n3ccccc3nc2n1Cc1cccnc1,"inconclusive [inhibitor, partial curve, poor fit]",
O=C(Nc1ccc2c(c1)S(=O)(=O)N=C1CCCCCN12)c1ccccc1Cl,"inconclusive [inhibitor, partial curve]",
CCOC(=O)c1c(C)[nH]c(O)c1C=Nc1ccc(C(F)(F)F)cc1,,inactive: 9.16%
CC1=N/C(=C\c2ccc([N+](=O)[O-])cc2)C(=O)N1c1ccc(F)cc1F,"inconclusive [inhibitor, single point]",
COc1cccc(NC(=O)Cn2c(=O)n(-c3cc(OC)c(OC)c(OC)c3)c(=O)c3ccccc32)c1,active: 10.4 µM,
CN(CC1CCOCC1)C(=O)CC1C(=O)NCCN1Cc1cccc(C(F)(F)F)c1 (stereo not drawn),"inconclusive [inhibitor, partial curve, poor fit]",
Cc1cc(NCCCn2ccnc2)n2c(nc3ccccc32)c1C#N,"inconclusive [inhibitor, single point]",
Cc1c(N=C2N=C(NC(=O)NC(C)(C)C)c3ccccc32)c(=O)n(-c2ccccc2)n1C,active: 13.1 µM,
COc1ccc(OC)c(NC(=O)c2cc(-c3cc(C)c(C)cc3O)n[nH]2)c1,active: 2.62 µM,
S=C(NCc1cccs1)Nc1cccc(Cl)c1,"inconclusive [inhibitor, single point]",
CCN(CC)S(=O)(=O)c1ccc(N(C)C)c(NC(=O)CSCc2c(C)noc2C)c1,"inconclusive [inhibitor, partial curve]",
CC1(C)Cc2ccccc2C(COc2ccccc2)=N1,"inconclusive [inhibitor, single point]",
CCOc1ccccc1NC(=O)C1CCN(c2ccc(S(=O)(=O)N3CCCC3)cc2)CC1,active: 4.65 µM,
O=C1CCc2cc(NS(=O)(=O)c3ccc([N+](=O)[O-])cc3)cc3c2N1CCC3,"inconclusive [inhibitor, partial curve, poor fit]",
Cc1ccnc(-n2c(C)cc(C=O)c2C)c1,"inconclusive [inhibitor, full curve, poor fit]",
Cc1ccc(NC(=O)c2cc(=O)c3ccccc3o2)cc1S(=O)(=O)N1CCOCC1,active: 8.28 µM,
Nc1nonc1-c1nc2ccccc2n1Cc1ccccc1,"inconclusive [inhibitor, partial curve, poor fit]",
O=C(CSc1nnc(Cn2nnc3ccccc32)o1)N(Cc1ccc(Cl)cc1)c1ccccc1,active: 10.4 µM,
NNc1ccc2c(C(F)(F)F)cc(C(F)(F)F)nc2n1,"inconclusive [inhibitor, single point]",
CC(C)CN(Cc1cc(=O)oc2cc(-c3ccccc3)c(O)cc12)CC(C)C,active: 0.329 µM,
CCCn1cc(S(=O)(=O)CC(=O)N2CCc3ccccc32)c2ccccc21,"inconclusive [inhibitor, single point]",
Cc1cc(OCc2cc(C(=O)NC(C)c3c(C)nn(C)c3C)no2)cc(C)c1Cl (stereo not drawn),,inactive: -21.5%
COC(=O)c1[nH]c2cc(OC)ccc2c1NC(=O)c1c(F)cccc1F,,inactive: -9.99%

Structure (SMILES),Potency,"activity change, negative = inhibition"
CC(C)(C)c1ccc(S(=O)(=O)NCc2ccccn2)cc1,,inactive: 10%
O=C(NCCc1ccccc1)c1cccc2c1C(=O)N(C1CCCCC1)C2,"inconclusive [inhibitor, partial curve]",
COc1ccc(N(C(=O)c2cnccn2)C(C(=O)NC2CCCCC2)c2cc(OC)c(OC)c(OC)c2)cc1 (stereo not drawn),"inconclusive [inhibitor, partial curve, poor fit]",
O=C(c1cc2ccccc2oc1=O)N(Cc1cccs1)Cc1ccccc1Cl,"inconclusive [inhibitor, single point]",
CCOC(=O)CC1=C(C(=O)OCC)C2(C(=O)Nc3ccccc32)C(C#N)=C(N)O1 (stereo not drawn),"inconclusive [inhibitor, partial curve]",
COc1ccc(C(O)(CCN2CCCCC2)C2CCCCC2)cc1 (stereo not drawn),,inactive: 0.0984%
Cn1nc(-c2ccccc2)c(C#N)c1Sc1cccc(Cl)c1,"inconclusive [inhibitor, partial curve, poor fit]",
Cc1ncc(CO)c2c1Oc1nc(-c3ccccc3)nc(SCC(=O)N3CCOCC3)c1C2,"inconclusive [inhibitor, partial curve]",
COc1ccc(NC(=O)CCCSc2ccccc2)cc1S(N)(=O)=O,"inconclusive [inhibitor, partial curve, poor fit]",
CC(C)(C)[C@@H]1C=C(C(=O)N2CCN(Cc3ccccc3)CC2)O[C@H](OCc2ccc(CO)cc2)C1,"inconclusive [inhibitor, partial curve]",
O=C(N/N=C/c1ccc([N+](=O)[O-])s1)c1ccccc1,"inconclusive [inhibitor, partial curve]",
COc1ccccc1-c1nc(C#N)c(N2CCN(Cc3ccccc3)CC2)o1,"inconclusive [inhibitor, partial curve]",
CC(=O)c1cc(C(=O)N2CCc3c([nH]c4ccccc34)C2C2CCCCC2)[nH]n1 (stereo not drawn),"inconclusive [inhibitor, partial curve, poor fit]",
O=C(OCc1nnc(-c2ccccc2)o1)C1CC(=O)N(CCc2ccccc2)C1 (stereo not drawn),,inactive: 27.2%
CCc1nc2ccccc2n1CCC(C)C,,inactive: -8.76%
Cc1cc2nc(C3CCCN(C(=O)NCc4ccccc4)C3)[nH]c2cc1C (stereo not drawn),,inactive: 49.8%
CC(Oc1cccc(Cl)c1)C(=O)N(C)CC(=O)Nc1ccc(N2CCOCC2)cc1 (stereo not drawn),,inactive: 12.7%
CC(C)C(NC(=O)c1c(F)cccc1F)C(=O)N1CCN(S(=O)(=O)/C=C/c2ccccc2)CC1 (stereo not drawn),"inconclusive [inhibitor, single point]",
CCC(=O)c1ccc(OCC(=O)OCC(=O)c2cc(C)n(C)c2C)cc1,"inconclusive [inhibitor, single point]",
CN(CCc1ccccn1)C(=O)c1nn2c(C(F)(F)F)cc(-c3ccco3)nc2c1Cl,"inconclusive [inhibitor, partial curve]",
CCNc1nc(NCC)nc(N/N=C/c2ccc(O)c(OC)c2)n1,"inconclusive [inhibitor, single point]",
O=S(=O)(c1ccccc1F)N1CCN(CCc2ccccc2)CC1,,inactive: -0.124%
